According to the supplement of paper PMC10369915:
This is one part of the list. Rule as the data show it: active = 3.2 or more and inactive = the rest. Most of these values are background signal.

Columns and labels:
Assay in all cases: enrichment score (SH2-bound / input frequency) (ratio); bacterial display of known human phosphotyrosine sites (pTyr-Var adds point mutants) read by sequencing; higher = stronger binding; tyrosines were phosphorylated by kinases first
Settings in all cases: peptide library: pTyr-Var
SHP2 C-SH2 domain E139D = target: SHP2 C-SH2 domain E139D
[1] = target: SHP2 C-SH2 domain wild-type
SHP2 N-SH2 domain L43F = target: SHP2 N-SH2 domain L43F
SHP2 N-SH2 domain T42A = target: SHP2 N-SH2 domain T42A
SHP2 N-SH2 domain T52S = target: SHP2 N-SH2 domain T52S
[2] = target: SHP2 N-SH2 domain wild-type

Measured: enrichment score
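Also: displayed peptides selected on beads carrying the immobilized SH2 domain, with library peptides lacking any tyrosine serving as negative controls.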

HEKKAYAFCGT [RPS6KA3_Y226_S227A]
inactive: SHP2 C-SH2 domain E139D 0.852 | [1] 0.848 | SHP2 N-SH2 domain L43F 0.87 | SHP2 N-SH2 domain T42A 1.02 | SHP2 N-SH2 domain T52S 0.733 | [2] 0.986

IGVDSYSVCKR [RPS6KA3_Y433_G431D]
inactive: SHP2 C-SH2 domain E139D 0.659 | [1] 0.674 | SHP2 N-SH2 domain L43F 0.468 | SHP2 N-SH2 domain T42A 0.581 | SHP2 N-SH2 domain T52S 0.598 | [2] 0.704

TLKDVCDDGKY [RPS6KA3_Y483_Y483C]
inactive: SHP2 C-SH2 domain E139D 0.749 | [1] 0.607 | SHP2 N-SH2 domain L43F 0.651 | SHP2 N-SH2 domain T42A 0.689 | SHP2 N-SH2 domain T52S 0.747 | [2] 0.708

TLKDVCDDGKF [RPS6KA3_Y483_Y483C_YF]
inactive: SHP2 C-SH2 domain E139D 0.636 | [1] 0.762 | SHP2 N-SH2 domain L43F 0.75 | SHP2 N-SH2 domain T42A 0.603 | SHP2 N-SH2 domain T52S 0.827 | [2] 0.773

IDSTPYGQWFE [RPS8_Y109_R110G_YF]
inactive: SHP2 C-SH2 domain E139D 0.82 | [1] 0.577 | SHP2 N-SH2 domain L43F 0.693 | SHP2 N-SH2 domain T42A 0.766 | SHP2 N-SH2 domain T52S 0.7 | [2] 0.763

IDSTPYRQWFE [RPS8_Y109_YF]
inactive: SHP2 C-SH2 domain E139D 0.999 | [1] 0.947 | SHP2 N-SH2 domain L43F 0.835 | SHP2 N-SH2 domain T42A 0.726 | SHP2 N-SH2 domain T52S 0.926 | [2] 1.08

PYRQWYESHYA [RPS8_Y113]
inactive: SHP2 C-SH2 domain E139D 1.5 | [1] 1.18 | SHP2 N-SH2 domain L43F 1.3 | SHP2 N-SH2 domain T42A 1.68 | SHP2 N-SH2 domain T52S 1.44 | [2] 1.2

PFRQWYESHFA [RPS8_Y113_YF]
inactive: SHP2 C-SH2 domain E139D 2.86 | [1] 2.38 | SHP2 N-SH2 domain L43F 2.95 | SHP2 N-SH2 domain T42A 2.54 | SHP2 N-SH2 domain T52S 2.27 | [2] 2.62

RLNWIYYKDQT [RS1_Y165]
inactive: SHP2 C-SH2 domain E139D 1.32 | [1] 1.06 | SHP2 N-SH2 domain L43F 1.15 | SHP2 N-SH2 domain T42A 1.07 | SHP2 N-SH2 domain T52S 1.11 | [2] 1.28

RLNCIYFKDQT [RS1_Y165_W163C_YF]
inactive: SHP2 C-SH2 domain E139D 1.9 | [1] 2.13 | SHP2 N-SH2 domain L43F 1.57 | SHP2 N-SH2 domain T42A 1.34 | SHP2 N-SH2 domain T52S 1.61 | [2] 1.89

LNCIYYKDQTG [RS1_Y166_W163C]
inactive: SHP2 C-SH2 domain E139D 1.01 | [1] 1.74 | SHP2 N-SH2 domain L43F 1.26 | SHP2 N-SH2 domain T42A 1.33 | SHP2 N-SH2 domain T52S 1.15 | [2] 1.75

LNWIFYKDQTG [RS1_Y166_YF]
inactive: SHP2 C-SH2 domain E139D 2.46 | [1] 2.4 | SHP2 N-SH2 domain L43F 2.5 | SHP2 N-SH2 domain T42A 2.32 | SHP2 N-SH2 domain T52S 2.42 | [2] 2.8

NNRVFYGNSDR [RS1_Y177]
inactive: SHP2 C-SH2 domain E139D 0.842 | [1] 0.658 | SHP2 N-SH2 domain L43F 0.714 | SHP2 N-SH2 domain T42A 0.765 | SHP2 N-SH2 domain T52S 0.739 | [2] 0.694

RKRQFYLFKGK [RSPO4_Y112_C107R_YF]
inactive: SHP2 C-SH2 domain E139D 0.204 | [1] 0.861 | SHP2 N-SH2 domain L43F 0.422 | SHP2 N-SH2 domain T42A 0.348 | SHP2 N-SH2 domain T52S 0.205 | [2] 0.197

ASLEAYCKHKY [RXRA_Y403]
inactive: SHP2 C-SH2 domain E139D 1.05 | [1] 1.43 | SHP2 N-SH2 domain L43F 1.14 | SHP2 N-SH2 domain T42A 1.04 | SHP2 N-SH2 domain T52S 1.4 | [2] 1.46

VSLEAYCKHKF [RXRA_Y403_A398V_YF]
inactive: SHP2 C-SH2 domain E139D 1.35 | [1] 1.52 | SHP2 N-SH2 domain L43F 1.63 | SHP2 N-SH2 domain T42A 1.02 | SHP2 N-SH2 domain T52S 1.27 | [2] 1.76

ASLEAYCKHKF [RXRA_Y403_YF]
inactive: SHP2 C-SH2 domain E139D 0.826 | [1] 0.938 | SHP2 N-SH2 domain L43F 0.766 | SHP2 N-SH2 domain T42A 0.992 | SHP2 N-SH2 domain T52S 1.05 | [2] 0.858

AIMSFYAALID [RYR1_Y2426]
inactive: SHP2 C-SH2 domain E139D 1.98 | [1] 2.11 | SHP2 N-SH2 domain L43F 2.07 | SHP2 N-SH2 domain T42A 1.96 | SHP2 N-SH2 domain T52S 2.01 | [2] 1.85

AIMSFYAALIN [RYR1_Y2426_D2431N]
inactive: SHP2 C-SH2 domain E139D 2.42 | [1] 2.49 | SHP2 N-SH2 domain L43F 2.43 | SHP2 N-SH2 domain T42A 2.19 | SHP2 N-SH2 domain T52S 2.18 | [2] 2.43
